Data from the antibiotic and cytotoxicity screens of Wong et al. (2023).
The list shows a part of the results.

system: S. aureus RN4220; assay: growth inhibition call (relative growth <= 0.2); details: 50 µM

Growth inhibition call, inactive:
C[C@@H]1CN([C@H](C)CO)C(=O)c2cc(NC(=O)Nc3ccc4c(c3)OCO4)ccc2O[C@@H](C)CCCCO[C@@H]1CN(C)Cc1ccc2c(c1)OCO2, COc1ccc(S(=O)(=O)N(C)C[C@@H]2OCCCC[C@H](C)Oc3ccc(NS(C)(=O)=O)cc3C(=O)N([C@H](C)CO)C[C@H]2C)cc1, C[C@@H]1CN([C@@H](C)CO)C(=O)Cc2cc(NC(=O)CCN3CCOCC3)ccc2O[C@@H]1CN(C)C(=O)Nc1ccccc1, COC(=O)[C@@H]1C(=O)NC[C@H]1c1cccnc1, Cl.Cl.O=C1c2c(O)ccc(O)c2C(=O)c2c(NCCNCCO)ccc(NCCNCCO)c21, O=C(C[C@H]1CC[C@H]2[C@@H](COC[C@@H](O)CN2C(=O)Nc2cccc(Cl)c2)O1)NCCCN1CCOCC1, CN1CCN(C(=O)C[C@H]2CC[C@@H]3[C@H](COc4ccc(NC(=O)C5CCOCC5)cc4C(=O)N3C)O2)CC1, COc1ccc(S(=O)(=O)Nc2ccc3c(c2)C(=O)N([C@@H](C)CO)C[C@H](C)[C@@H](CN(C)S(=O)(=O)c2ccccc2)O3)cc1, CS(=O)(=O)N1CC[C@@H]2OCCN(C(=O)c3cccnc3)[C@@H]2C1, COc1ccc(-c2cnc3c(c2)C(=O)N([C@H](C)CO)C[C@@H](C)[C@@H](CN(C)C(=O)Cc2ccncc2)O3)cc1, C[C@H](CO)N1C[C@H](C)[C@@H](CN(C)C(=O)C2CCCCC2)OCCCC[C@H](C)Oc2ccc(NC(=O)Nc3cccc4ccccc34)cc2C1=O, C[C@@H]1CCCCO[C@@H](CN(C)C(=O)c2ccccc2)[C@H](C)CN([C@H](C)CO)C(=O)c2cc(NC(=O)c3ccccc3)ccc2O1, CO[C@H](CN(C)S(=O)(=O)c1cccc(Cl)c1)[C@H](C)CN([C@@H](C)CO)S(=O)(=O)c1cccc(Cl)c1, O=C(C[C@H]1C=C[C@@H](NC(=O)c2ccc(F)cc2)[C@@H](CO)O1)NCc1ccncn1, Cc1ccc(S(=O)(=O)N[C@@H](Cc2ccccc2)C(=O)NCCCn2cc(-c3ccc(C(=O)NO)s3)nn2)cc1, C[C@H]1CCCCO[C@H](CN(C)Cc2ccc(C(F)(F)F)cc2)[C@@H](C)CN([C@@H](C)CO)C(=O)c2cc(NC(=O)Cc3ccccc3)ccc2O1, C[C@@H]1CCCCO[C@H](CN(C)CC2CC2)[C@@H](C)CN([C@H](C)CO)C(=O)c2cc(NC(=O)CCC(F)(F)F)ccc2O1, Nc1nc2ccc(OC(F)(F)F)cc2s1, CS(=O)(=O)CC(=O)N1C[C@@H]2CN(Cc3ccoc3)CCO[C@@H]2C1, COCC#Cc1ccc2c(c1)O[C@@H](CN(C)C(=O)C1CCCCC1)[C@@H](C)CN([C@@H](C)CO)S2(=O)=O, CC(=O)N1CCN(c2ccnc3c2c(=O)n(CC(=O)NC(C)(C)C)c(=O)n3C)CC1, C[C@H]1CN([C@@H](C)CO)C(=O)Cc2cc(NS(=O)(=O)c3ccc(F)cc3)ccc2O[C@@H]1CN(C)CC1CC1, COc1ccc(NC(=O)N(C)C[C@H]2Oc3c(NC(=O)C4CCOCC4)cccc3C(=O)N([C@@H](C)CO)C[C@@H]2C)cc1, C[C@H](CO)N1C[C@H](C)[C@@H](CN(C)S(=O)(=O)c2ccccc2)OCCCC[C@H](C)Oc2ccc(NC(=O)Nc3ccc(F)cc3)cc2C1=O, C[C@@H]1CN([C@H](C)CO)C(=O)Cc2cc(NS(=O)(=O)c3ccccc3)ccc2O[C@@H]1CN(C)S(=O)(=O)c1ccc(F)cc1, C[C@@H]1CCCCO[C@@H](CN(C)Cc2ccc(C(F)(F)F)cc2)[C@@H](C)CN([C@@H](C)CO)C(=O)c2cc(NC(=O)Cc3ccccc3)ccc2O1, CC(C)NC(=O)Nc1ccc2c(c1)C(=O)N([C@H](C)CO)C[C@H](C)[C@@H](CN(C)S(=O)(=O)c1ccc(Cl)cc1)O2, C[C@H](CO)N1C[C@H](C)[C@H](CN(C)C(=O)c2cc(Cl)cc(Cl)c2)OCc2ccccc2-c2ccccc2C1=O, C[C@H](CO)N1C[C@H](C)[C@H](CN(C)C(=O)Nc2ccc(F)cc2)Oc2ccc(NC(=O)Nc3cccc4ccccc34)cc2C1=O, NCC[C@H]1CC[C@@H](NC(=O)C2CCCCC2)[C@@H](CO)O1, Cn1cnc(S(=O)(=O)N2C[C@@H](O)COC[C@H]3O[C@H](CC(=O)NCc4cc(F)cc(F)c4)CC[C@@H]32)c1, COCCn1cc2c(n1)[C@H](CNC(=O)CS(C)(=O)=O)OCC2, Cc1noc(C)c1NC(=O)Nc1ccc2c(c1)C(=O)N([C@@H](C)CO)C[C@H](C)[C@H](CN(C)CC1CCCCC1)OCCCC[C@H](C)O2, Cn1cc(-c2[nH]c3cc(NC(=O)[C@H](N)C4CCCCC4)cc4c3c2C=NNC4=O)cn1, COc1cccc(S(=O)(=O)N(C)C[C@@H]2Oc3ncc(-c4ccc(F)cc4)cc3C(=O)N([C@H](C)CO)C[C@@H]2C)c1, C[C@H](CO)N1C[C@H](C)[C@@H](CN(C)S(=O)(=O)c2cccs2)Oc2c(NS(=O)(=O)c3ccccc3)cccc2C1=O, NCC[C@@H]1CC[C@@H](NC(=O)C2CCC2)[C@H](CO)O1, C[C@H]1CCCCO[C@@H](CN(C)C(=O)Cc2ccccc2)[C@@H](C)CN([C@@H](C)CO)C(=O)c2cc(NS(=O)(=O)c3ccc(Cl)cc3)ccc2O1, Cc1ccc(S(=O)(=O)Nc2ccc3c(c2)C(=O)N([C@H](C)CO)C[C@@H](C)[C@H](CN(C)C(=O)Nc2cccc4ccccc24)OCCCC[C@H](C)O3)cc1, O=C(C[C@H]1CC[C@H]2[C@@H](COC[C@H](O)CN2C(=O)c2ccncc2)O1)NC1CCC1
